Source: patent US20250340661A1, “ANTI CD40 ANTIBODY, ANTIGEN BINDING FRAGMENT AND MEDICAL USE THEREOF” (Jiangsu Hengrui Pharmaceuticals Co., Ltd., priority 2021, published 2025)

What was measured:
[1] = PK assay in human CD40 transgenic mice; type: in vivo, mouse; settings: hCD40 transgenic mice, 10 mg/kg intraperitoneal, plasma
Excerpt: The plate was washed three times with wash buffer.

[2] = tested on: human CD40 transgenic mice; assay: Mouse skin graft rejection model; type: in vivo
Excerpt: Male Balb/c mice, 6 weeks old, were purchased from the Laboratory Animal Management Department, Shanghai Institute of Planned Parenthood Research. Housing environment: SPF; certification number: 20180006023393.
On day −2 of the experiment, the mice were intraperitoneally injected with tacrolimus FK506 or CD40 antagonistic antibodies. On day 0 of the experiment, donor Balb/c mice and C57BL6/J mice were anesthetized with 4% chloral hydrate. The tails of the donor mice were removed, and full circles of skin, 1 cm in length, were isolated from the tails. The hair on the acceptor mice's back was removed, and an incision was made along the skin layer. An equal area of skin was removed while preserving the back fat and connective tissue. The donor skin was placed on the acceptor mice's incision site, and the incision was closed with glue. The mice were then placed back in cages to recover.
The mice were dosed according to the administration regimens in Table 17. After 7 days of recovery, the mouse skin survival was observed daily and rejection scores were recorded.

CD40 [3] = molecular target: T1, CD40 (Homo sapiens, UniProt P25942); assay: B cell activation assay system (human PBMCs, CD40L stimulation); type: cell-based; set-up: endogenous in cells; host or cells: human PBMCs (CD19+ B cells read out); settings: CD40L-his + anti-His overnight
T1 sequence (P25942 21-277): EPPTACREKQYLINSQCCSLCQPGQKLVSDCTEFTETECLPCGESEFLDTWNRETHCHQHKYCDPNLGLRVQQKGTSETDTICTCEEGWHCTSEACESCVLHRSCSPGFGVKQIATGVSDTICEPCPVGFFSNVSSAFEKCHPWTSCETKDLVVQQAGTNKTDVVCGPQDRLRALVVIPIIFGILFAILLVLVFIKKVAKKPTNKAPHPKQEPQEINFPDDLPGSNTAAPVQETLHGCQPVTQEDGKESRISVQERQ
Method: CD40 is highly expressed in B cells, and CD40L, upon binding to CD40, can induce B cell activation and up-regulate the expression of a series of activation markers. CD40 antagonistic antibodies block the binding of CD40L to CD40, thereby eliminating the immune activation process of B cells.
Human PBMCs were plated at 2E5/well, 50 μL/well into a 96-well cell culture plate (the medium was RPMI-1640, 10% FBS, 1% penicillin-streptomycin). Serially diluted test antibodies were added at 50 μL/well, and the cells were co-incubated at 37° C. in 5% CO2 for 0.5 h. CD40L-his and an anti-His antibody were added to each well for overnight stimulation. The following day, the plate was centrifuged, the supernatant was removed, and the cells were washed twice with FACS buffer and stained at room temperature for 15 min with 100 μL of Fixable viability dye EF780 (Invitrogen, 65086514) diluted at 1:1000. The cells were washed twice and then blocked at room temperature for 10 min with 100 μL of human Fc blocker (BD, 564220) diluted at 1:200. After centrifugation, the cells were incubated at 4° C. for 0.5 h with flow cytometry antibodies (PerCP/Cyanine5.5 anti-human CD19 (Biolegend, 302230), and APC anti-human CD69 (Biolegend, 310910)) diluted at 1:200. After centrifugation, the supernatant was removed, the cells were washed twice with FACS buffer and then resuspended in 200 μL of PBS, and the fluorescence intensity on the cell surface was measured by flow cytometry (BD FACS Celesta).
With reference to the method in Example 10, the inhibitory activity of the anti-CD40 antibodies 2F12-L4H2-AAYTE and 9E6-L4H2-AAYTE, which carry the AAYTE mutation in the Fc, in the B cell activation assay system was measured.

CD40 [4] = molecular target: T1, CD40; assay: Agonistic activity in B cell activation assay system without CD40L; type: cell-based; set-up: endogenous in cells; host or cells: human PBMCs (CD19+ B cells read out); settings: human PBMCs without CD40L, FIG. 4; 9E6-L4H2 and 2F12-L4H2 stated at 2.5 nM
Method: CD40, which belongs to the TNF superfamily of receptors, mediates the specific and non-specific activation of downstream signaling pathways upon binding to the ligand CD40L or being cross-linked by antibodies. Therefore, the background agonist activity of CD40 antagonistic antibodies on B cells can be measured without adding CD40L.
Human PBMCs were plated at 2E5/well, 100 μL/well into a 96-well cell culture plate (the medium was RPMI-1640, 10% FBS, 1% penicillin-streptomycin). Serially diluted test antibodies were added at 100 μL/well, and the cells were incubated overnight at 37° C. in 5% CO2. The following day, the plate was centrifuged and the supernatant was removed, and the cells were washed twice with FACS buffer and stained at room temperature for 15 min with 100 μL of Fixable viability dye EF780 diluted at 1:1000. The cells were washed twice and then blocked at room temperature for 10 min with 100 μL of human Fc blocker diluted at 1:200. […] After centrifugation, the supernatant was removed, the cells were washed twice with FACS buffer and then resuspended in 200 μL of PBS, and the fluorescence intensity on the cell surface was measured by flow cytometry (BD FACS Celesta).

[5] = tested on: human CD40 transgenic mice; assay: Mouse T cell-dependent humoral immune response (TDAR) model; type: in vivo; settings: 0.3 mpk BIW ip (IgG1 control 1 mg/kg per Table 15); serum ELISA
Method: On day 0 of the experiment, one of the mice in each group was subjected to blood collection followed by intraperitoneal injection. On day 1, each mouse was intraperitoneally injected with 50 μg of KLH (KLH:complete Freund's adjuvant (CFA)=1:1 emulsified immune complex) for immunization. On day 15 of the experiment, each mouse was intraperitoneally injected with 50 μg of KLH (KLH:incomplete Freund's adjuvant (IFA)=1:1 emulsified immune complex) for a second immunization. Each group was intraperitoneally injected twice a week, and blood samples of about 150 μL were collected from the orbital venous plexus on days 7, 14, 21, and 28. Whole blood was left to stand at room temperature for 1-4 h and centrifuged at 7000 rpm at 4° C. for 10 min to separate serum, and the serum was stored at −80° C. before use.
Mouse serum was separated weekly and assayed by ELISA for the anti-KLH specific IgG level.

CD40 [6] = molecular target: T1, CD40; assay: SPR (Biacore) affinity for human CD40; type: binding; set-up: h-CD40-his; Glu21-Arg193; P25942-1; His; purchased Acrobiosystems Inc. CD0-H5228; settings: Human CD40 as mobile phase, antibody captured
Method: (§1) The test antibody was affinity-captured on an anti-human Fc chip, and a series of concentrations of His-tagged human or cynomolgus monkey CD40 antigen were allowed to flow over the chip surface. Reaction signals were detected in real time using a Biacore instrument, and thus binding and dissociation curves were obtained. The buffer used in the experiment was HBS-EP+10× buffer solution (Cat. #BR-1006-69, GE) diluted to 1× (pH 7.4) with D. I. Water. Fitting was performed on the data obtained from the experiment using a (1:1) Binding model to obtain affinity values. 9E6-L4H2 and 2F12-L4H2 have similar binding constants for human CD40 to CFZ533, 9E6-L4H2 has a stronger binding affinity for cynomolgus monkey CD40, and 2F12-L4H2 has a slightly weak binding affinity for cynomolgus monkey CD40.

Cynomolgus monkey CD40 = assay: SPR (Biacore) affinity for cynomolgus monkey CD40; type: binding; settings: Cynomolgus monkey CD40 as mobile phase
Method: as §1

[7] = 8 days, 3 mpk, scale 3 (no rejection) to 0

B1: 2F12-L4H2: humanized anti-CD40 antibody, HC SEQ ID NO: 95, LC SEQ ID NO: 96, human IgG1 N297A, kappa (antibody)
heavy: EVTVKESGPVLVKPTETLTLTCTVSGFSLSSYGVSWIRQPPGKALEWLGGIGSDGSAYYASWAKSRLTISRDTNLKQVVLTMTNMDPVDTATYYCARGGITVYAMWGQGTLVTVSSASTKGPSVFPLAPSSKSTSGGTAALGCLVKDYFPEPVTVSWNSGALTSGVHTFPAVLQSSGLYSLSSVVTVPSSSLGTQTYICNVNHKPSNTKVDKKV[human IgG1 Fc with changes not shown]
light: AFQLTQSPSSLSASVGDRVTITCQASQSISTGLAWYQQKPGKPPKLLIVGASNLASGVPSRFSGSGSGTDFTLTISSLQPEDFATYYCQSYFSSSSTVFGGGTKVEIKRTVAAPSVFIFPPSDEQLKSGTASVVCLLNNFYPREAKVQWKVDNALQSGNSQESVTEQDSKDSTYSLSSTLTLSKADYEKHKVYACEVTHQGLSSPVTKSFNRGEC
modifications: 2F12-L4H2 HC; 2F12-L4H2 LC
- AUC(0-d 14) [1]: 12014 (h)*(mg/L)
- Cmax [1]: 88.78 µg/mL
- T½ [1]: 10.71 days
- Skin graft score [2, 7]: 2.9
- Skin graft score ([2]; 8 days, 10 mpk, scale 3 to 0): 2.7
- Skin graft score ([2]; 10 days, 3 mpk, scale 3 to 0): 2.4
- Skin graft score ([2]; 10 days, 10 mpk, scale 3 to 0): 2.4
- Skin graft score ([2]; 15 days, 3 mpk, scale 3 to 0): 0.6
- Skin graft score ([2]; 15 days, 10 mpk, scale 3 to 0): 0.9
- Skin graft score ([2]; 20 days, 3 mpk, scale 3 to 0): 0.1
- Skin graft survival rate (%) ([2]; Day 15, 3 mpk ip): 28.5%
- Skin graft survival rate (%) ([2]; Day 15, 10 mpk ip): 42.9%
- CD19+CD69+ % Maximum inhibition rate (CD40 [3]): 93%
- CD19+CD69+ MFI Maximum inhibition rate (CD40 [3]): 111%
- B cell agonistic activity (CD40 [4]): no significant B cell agonistic activity
- anti-KLH specific IgG level, Day 7 [5]: 0.22 ± 0.14
- anti-KLH specific IgG level, Day 14 [5]: 33.4 ± 25.8
- anti-KLH specific IgG level, Day 21 [5]: 175.5 ± 103
- anti-KLH specific IgG level, Day 28 [5]: 805.7 ± 415.6
- Ka (CD40 [6]): 758000 M⁻¹ s⁻¹
- Ka (Cynomolgus monkey CD40): 1.17e+07 M⁻¹ s⁻¹

B2: 9E6-L4H2: humanized anti-CD40 antibody, HC SEQ ID NO: 93, LC SEQ ID NO: 94, human IgG1 N297A, kappa (antibody)
heavy: QVQVQESGPGLVKPSDTLSLTCTVSGFSLSSYDMSWIRQPPGKGLEWIGAIGGAGGTYYASWAKSRVTISVDTSLNQVSLKLSSVTAADTAVYYCARGWTRLDLWGQGTLVTVSSASTKGPSVFPLAPSSKSTSGGTAALGCLVKDYFPEPVTVSWNSGALTSGVHTFPAVLQSSGLYSLSSVVTVPSSSLGTQTYICNVNHKPSNTKVDKKV[human IgG1 Fc with changes not shown]
light: DIQLTQSPSFLSASVGDRVTITCQASEDISSNLAWYQQKPGKPPKLLIFPASNLASGVPSRFSGSGSGTEFTLTISSLQPEDFATYYCQGGYWTSTSNFGQGFGGGTKVEIKRTVAAPSVFIFPPSDEQLKSGTASVVCLLNNFYPREAKVQWKVDNALQSGNSQESVTEQDSKDSTYSLSSTLTLSKADYEKHKVYACEVTHQGLSSPVTKSFNRGEC
modifications: 9E6-L4H2 HC; 9E6-L4H2 LC
- AUC(0-d 14) [1]: 13439 (h)*(mg/L)
- Cmax [1]: 85.8 µg/mL
- T½ [1]: 9.45 days
- Skin graft score [2, 7]: 3
- Skin graft score ([2]; 8 days, 10 mpk, scale 3 to 0): 3
- Skin graft score ([2]; 10 days, 3 mpk, scale 3 to 0): 2.7
- Skin graft score ([2]; 10 days, 10 mpk, scale 3 to 0): 2.7
- Skin graft score ([2]; 15 days, 3 mpk, scale 3 to 0): 0.6
- Skin graft score ([2]; 15 days, 10 mpk, scale 3 to 0): 0.3
- Skin graft score ([2]; 20 days, 3 mpk, scale 3 to 0): 0
- Skin graft score ([2]; 20 days, 10 mpk, scale 3 to 0): 0
- Skin graft survival rate (%) ([2]; Day 15, 3 mpk ip): 28.5%
- Skin graft survival rate (%) ([2]; Day 15, 10 mpk ip): 14.3%
- CD19+CD69+ % Maximum inhibition rate (CD40 [3]): 98%
- CD19+CD69+ MFI Maximum inhibition rate (CD40 [3]): 110%
- B cell agonistic activity (CD40 [4]): no significant B cell agonistic activity
- anti-KLH specific IgG level, Day 7 [5]: 0.002 ± 0.001
- anti-KLH specific IgG level, Day 14 [5]: 0.02 ± 0.01
- anti-KLH specific IgG level, Day 21 [5]: 0
- anti-KLH specific IgG level, Day 28 [5]: 18.25 ± 8.9
- Ka (CD40 [6]): 413000 M⁻¹ s⁻¹
- Ka (Cynomolgus monkey CD40): 514000 M⁻¹ s⁻¹
